{"source": "the antibiotic and cytotoxicity screens of Wong et al. (2023)", "note": "The list shows a part of the results.", "data": [{"tested_on": "HepG2", "assay": "cytotoxicity call (relative viability < 0.9)", "details": "10 µM", "values": [{"compound": "CN(C)C(=O)c1cccc(-c2cccc(-c3nc(C(=O)NCc4ccccc4)cc4c3[C@@H](CCO)N([S@](=O)C(C)(C)C)C4)c2)c1", "cytotoxicity call": "inactive"}, {"compound": "C[C@@H]1CCCCO[C@H](CN(C)C(=O)NC2CCCCC2)[C@H](C)CN([C@@H](C)CO)C(=O)c2cc(NS(=O)(=O)c3ccccc3)ccc2O1", "cytotoxicity call": "inactive"}, {"compound": "C[C@@H]1CN([C@H](C)CO)C(=O)c2cccc(NC(=O)c3nc4ccccc4s3)c2O[C@@H]1CN(C)CC1CCCCC1", "cytotoxicity call": "inactive"}, {"compound": "O=C(O)c1cc2cccnc2[nH]c1=O", "cytotoxicity call": "inactive"}, {"compound": "CCCN(C)C[C@H]1OCCCC[C@@H](C)Oc2ccc(NC(=O)Nc3ccc(OC)cc3)cc2C(=O)N([C@H](C)CO)C[C@@H]1C", "cytotoxicity call": "inactive"}, {"compound": "NCC[C@@H]1CC[C@@H](NC(=O)C2CC2)[C@@H](CO)O1", "cytotoxicity call": "inactive"}, {"compound": "Cc1ccc(S(=O)(=O)N(C)C[C@H]2Oc3ccc(NS(=O)(=O)c4cccs4)cc3C(=O)N([C@H](C)CO)C[C@@H]2C)cc1", "cytotoxicity call": "inactive"}, {"compound": "C[C@@H]1CCCCO[C@H](CN(C)S(=O)(=O)c2cn(C)cn2)[C@H](C)CN([C@@H](C)CO)C(=O)c2cc(NC(=O)Nc3ccc(C(F)(F)F)cc3)ccc2O1", "cytotoxicity call": "inactive"}, {"compound": "C[C@@H]1CN([C@H](C)CO)C(=O)c2cc(NC(=O)Cc3ccccc3)ccc2O[C@@H](C)CCCCO[C@@H]1CN(C)C(=O)CCC(F)(F)F", "cytotoxicity call": "inactive"}, {"compound": "CC(C)NC(=O)N(C)C[C@@H]1Oc2ccc(NC(=O)CCCN(C)C)cc2C(=O)N([C@H](C)CO)C[C@H]1C", "cytotoxicity call": "inactive"}, {"compound": "C[C@H]1CCCCO[C@H](CN(C)CC2CC2)[C@@H](C)CN([C@@H](C)CO)C(=O)c2cc(NC(=O)Nc3ccc4c(c3)OCO4)ccc2O1", "cytotoxicity call": "inactive"}]}]}
